Our source for the self-cleavage values is the RNAGym collection of RNA variant scans (doi:10.7554/elife.90254).

The source gives no read counts; variants with many changes may rest on few reads.

To fix the notation:
B1: LINE1-mini (parent)
chain: GGCAGAGCUCAACACAGCGUGGCAAAGUGGCUGUGGCUAGACUGCC

In this series the parent is B1. As to the kind of experiment: self-cleavage, relative activity (ratio to wild type); higher = more cleavage; in vitro, sequencing; the parent is a self-cleaving ribozyme.
In the case of C8U C13G G27A C31A, the self-cleavage worked out at 0.07.
As for U9C G17C C18G, the self-cleavage came out at 0.02.
As for U9C C13G G30U C42A, the self-cleavage was 0.01.
In the case of C8U U32A C42U, the self-cleavage amounted to 0.18.
Then C8U C10U A25U C45U, with 0.05; and U9A C13A A16G C23U G36A, with 0.18; and U9A C23A C31U U34A G44C, with 0.03.
With U9C C10A G33A A41U, the self-cleavage stood at 0.02.
With C8U U20C U38A, the self-cleavage was determined as 0.03.
Then U9C A26C U28A, with 0.02.
For U9A G22A U38A, the self-cleavage stood at 0.43.
Take U9A A25C U34A G44U: the self-cleavage was found to be 0.08.
Consider U9A A14U A26G G30A, for which the self-cleavage came to 0.05.
U9A G21A A25U U32A A39G: the self-cleavage worked out at 0.06.
Regarding U9C C10U U34A, the self-cleavage is 0.05.
Consider U9C C10U C13U A14C G33A, for which the self-cleavage stood at 0.01.
Take C8U G17A G19A G33C: the self-cleavage was found to be 0.07.
For the variant C8U C13A G35U G44C, the self-cleavage is 0.16.
Consider U9C C13U G30U U38C C42U, for which the self-cleavage was 0.
Regarding U9A C13A G21C, the self-cleavage is 0.06.
With U9A G21U A24U A25C G35C, the self-cleavage is 0.02.
For C8U G30A G36C, the self-cleavage came out at 0.02.
Then C8U G33C A41G, with 0.05; and U9A G21A C46G, with 0.14.
Take U9C A11G G36C: the self-cleavage was found to be 0.02.
Turning to C8U C10U A11G A16U U34A G35A, the self-cleavage is 0.03.
On to C8U C13A G17C U32G G33U U34A, for which the self-cleavage is 0.14.
The same measure for U9A U38G G40C: 0.27.
Turning to C8U G17A G40U, the self-cleavage worked out at 0.13.
Turning to U9C C10G U38C, the self-cleavage was 0.
Consider U9C A14C G27U G33A G40A A41G U43G, for which the self-cleavage was 0.01.
The same measure for C8U U32G G40A: 0.09.
With U9A C10G C37A C42A, the self-cleavage is 0.01.
The same measure for U9A U20G A24U A25G: 0.1; for U9A C10G A25C: 0.
On to U9A C15U G17U G21A A24C G29U G44U, for which the self-cleavage was 0.08.
The same measure for U9A G33U U43G: 0; for U9A C18G U34A U43C: 0.08; for U9C G17C U20G U38G U43A: 0.01.
Then C8U U32G U34C G36A, with 0.01; and U9A C37U C45U, with 0.1.
The same measure for U9A C13A A39C: 0.17; for U9A C18A C23G: 0.02; for U9A A26G G27U C31A: 0.07.
As to C8U C15A G17A C31U, the self-cleavage is 1.27.
Regarding U9A A25U G33A G35A G36A, the self-cleavage amounted to 0.17.
On to U9A C15A U28A, for which the self-cleavage amounted to 0.33.
As for U9A C15U U34G C46A, the self-cleavage worked out at 0.07.
For U9A A41C U43A, the self-cleavage turned out to be 0.03.
In the case of U9A C10U A11G, the self-cleavage amounted to 0.04.
U9A C15U G30U U32C G40C G44U: the self-cleavage amounted to 0.51.
With U9A C18U G33U U43G C45U, the self-cleavage was 0.02.
In the case of U9C A41C C42U G44U C45G, the self-cleavage turned out to be 0.04.
With U9C C13G U32A G36C C46U, the self-cleavage was 0.01.
With U9A C10G C23U C37A, the self-cleavage was 0.
Then C8U U9C A11C, with 0.05; and C8U C13A A26G A41C G44C, with 0.07; and U9A A14C C37A, with 0.15.
Then U9C A11C C15U G19A C31G U32C U34A C46A, with 0; and U9A U28G G35C C37A, with 0.17; and U9C A14U G22A C23G A26C G33U C42A, with 0.01.
With C8U G22A C23A G27C, the self-cleavage stood at 0.02.
For U9A C18U G40C A41G C42U, the self-cleavage is 0.28.
As for U9C A12G C18G G21U C42U, the self-cleavage is 0.01.
Then C8U G40C U43A C45A, with 0.04; and C8U U9G C42U, with 0.15.
Take C8U G27U G30A G44C: the self-cleavage came to 0.13.
Take U9A C13A G19A: the self-cleavage is 0.02.
Regarding U9A C15G U28C, the self-cleavage amounted to 0.07.
In the case of C8U C18A G44A, the self-cleavage came to 0.09.
The same measure for U9C C10A G33A A39C: 0.03; for C8U U34C A41G: 0.07.
On to C8U C37U A39G, for which the self-cleavage was 0.01.
With U9A A25U U38C A41C C46U, the self-cleavage was determined as 0.06.
As for U9C G21C G29C G44C, the self-cleavage is 0.03.
C8U C18G G22C U43A: the self-cleavage is 0.03.
Take U9A G21U G27U G36A: the self-cleavage was 0.41.
As to U9A C10A G27U G29C, the self-cleavage worked out at 0.01.
In the case of C8U C18G U20C A24U G30U U38A A39G, the self-cleavage is 0.15.
C8U G19C U20A G21U A39C: the self-cleavage was 0.02.
Turning to U9C A16U A24U G33A U34A, the self-cleavage was determined as 0.01.
As to U9C A26C G40U C46G, the self-cleavage worked out at 0.
U9A G36U C45U: the self-cleavage was determined as 0.48.
Then C8U C10U G19A U43G, with 0.06.
Turning to U9C A11U C18U, the self-cleavage was found to be 0.01.
On to C8U C15A U38G, for which the self-cleavage amounted to 0.14.
U9A G19U U20A: the self-cleavage stood at 0.04.
Regarding U9A A14U G22A, the self-cleavage turned out to be 0.09.
With C8U G17U C23G A24G, the self-cleavage is 0.04.
The same measure for U9A A26C G27U G29U: 0.12; for U9A G30U C31A U32A C37U: 0.14.
Consider U9A C13U G19C U20A A24U A26G, for which the self-cleavage was found to be 0.02.
With U9A C23A G29C C31U G33A G40U, the self-cleavage was determined as 0.04.
For U9A G19U G27U, the self-cleavage was 0.11.
Then C8U U28G C31A, with 0.13.
In the case of C8U G29C C42A, the self-cleavage is 0.01.
For C8U U20G G35U, the self-cleavage amounted to 0.12.
With C8U G19U G21U, the self-cleavage is 0.21.
On to U9A A14G G22A G40U, for which the self-cleavage amounted to 0.05.
Turning to C8U C13A G21U, the self-cleavage turned out to be 0.34.
Then C8U C23U G27A U34A, with 0.1; and U9A U20G G30U C31U, with 0.02; and U9A A24U G29A A41G G44A, with 0.
The same measure for U9A A14C U34G: 0.07.
The same measure for U9C C13A C15G C31G: 0; for U9C A12U A26G: 0.03; for C8U C13U A16U G33C C46A: 0.05.
Regarding U9C A16G C31U G40C G44A, the self-cleavage came to 0.01.
For the variant U9A A16G A39G, the self-cleavage was found to be 0.09.
As for U9A A25U G29A C45G, the self-cleavage came out at 0.04.
The same measure for C8U C23A C31U: 0.18; for U9A G27A U32A: 0.13; for U9A C15A G21C C31U G40U: 0.01.
Then U9C A12G C13G C23U, with 0.01; and C8U G22U C23A, with 0.26.
Regarding C8U U9G G27C, the self-cleavage stood at 0.03.
For C8U C13U U43G C45A, the self-cleavage worked out at 1.05.
Turning to C8U U34G C37G C42U U43C, the self-cleavage was found to be 0.18.
With U9A A14U U20A, the self-cleavage was 0.29.
With U9A U20A G21A G33U U34A G44A, the self-cleavage turned out to be 0.2.
In the case of U9C A12U A26C A39C, the self-cleavage worked out at 0.07.
Consider C8U G19C G27C G36U, for which the self-cleavage was found to be 0.07.
For the variant U9A A11C C37A, the self-cleavage is 0.06.
With C8U U28C G29C G30A C31U G44U C45U, the self-cleavage was 0.11.
For U9A C31A U43C, the self-cleavage was determined as 0.17.
On to U9A C13A C45A, for which the self-cleavage stood at 0.32.
On to C8U C15A G33A G36U U38C C46U, for which the self-cleavage is 0.13.
U9A A26U G29A U32A: the self-cleavage stood at 0.
As for U9A C10G C13G, the self-cleavage was found to be 0.03.
Consider C8U C13U C37A, for which the self-cleavage amounted to 0.2.
On to U9C G17U A26U, for which the self-cleavage came out at 0.02.
For U9C A14C C15U U28A U38G, the self-cleavage came out at 0.
With C8U G19A G27A G40A A41C, the self-cleavage is 0.06.
Regarding C8U G33U C42U, the self-cleavage was determined as 0.21.
U9A G17U U20C A26U U43C: the self-cleavage was found to be 0.07.
Then U9A A12C U28A, with 0.03; and U9A C10G G21C A25C, with 0.02; and U9A G19U U28C C42A, with 0.06.
Then C8U G30U G36U, with 0.37; and U9A A11C A24U G30C C31U U34G, with 0.01; and U9A A11G G19U A26C G33C U38G, with 0.01.
Turning to U9C C10A A39G, the self-cleavage was determined as 0.
Regarding C8U C10U U32C G36U, the self-cleavage was 0.12.
Then U9C A12G U34A C37G U38C A39G, with 0.01; and C8U G17C G22U A26C U38A, with 0.08; and U9C C37A A39U, with 0.04.
On to C8U U20A G35U A41G, for which the self-cleavage came out at 0.13.
For the variant C8U U9G A24U, the self-cleavage stood at 0.12.
In the case of C8U C13G C18G C31G G44C C46U, the self-cleavage was found to be 0.04.
As for C8U G44C C45U, the self-cleavage came to 0.07.
In the case of U9C G19A U38C C42G, the self-cleavage amounted to 0.04.
For C8U G19A C31A G40U, the self-cleavage was determined as 0.12.
For the variant C8U C42U C45A, the self-cleavage was 0.15.
Consider U9A C15A G17A C18A, for which the self-cleavage was determined as 0.04.
With U9A A16U A26G G36C, the self-cleavage is 0.03.
With U9A G29A C42A, the self-cleavage turned out to be 0.04.
With C8U G27U C42G, the self-cleavage amounted to 0.07.
Take C8U C13G G22A G35U: the self-cleavage was found to be 0.28.
In the case of C8U U32C U43A, the self-cleavage stood at 0.06.
With C8U G21A C23A G29A C46G, the self-cleavage was 0.22.
Consider U9A A12C G33U G35U, for which the self-cleavage came to 0.01.
Regarding C8U C13G G21A, the self-cleavage was determined as 0.44.
Regarding U9A G27U G35A, the self-cleavage stood at 0.04.
U9A G36C U38C: the self-cleavage turned out to be 0.
The same measure for C8U U32C G33U: 0.04.
U9C C10G G29C G30A C37U: the self-cleavage came to 0.01.
Turning to U9A C31A G36A C46G, the self-cleavage is 0.02.
